Laboratory results reported in ChEMBL document CHEMBL4888484, “Replenishing the malaria drug discovery pipeline: Screening and hit evaluation of the MMV Hit Generation Library 1 (HGL1) against asexual blood stage Plasmodium falciparum ,using a nano luciferase reporter read-out” (2022).
Out of some 150,000 compounds screened, about 540 (0.36%) showed an effect of 50% or more. The list shows a part of the results.

Test system: Plasmodium falciparum
Test: Primary screen in NF54 nanoGlo assay, in single point, at 2uM, 72h; a lower Z score goes with more inhibition
Assay type: functional, Erythrocyte
Details: timepoint 72 hour

| SMILES | % Inhibition [%] | Z score |
| --- | --- | --- |
| COCCN1CC[C@H](NCc2ccc3c(c2)CCO3)C1 | 6 | -0.83 |
| CN(C(=O)C1CCCCC1)c1ccc(NC(=O)C2CCCCC2)cc1Cl | 2 | -0.5 |
| Cc1ccccc1-c1nnsc1C(=O)N1CC2(CCC2)OC[C@@H]1C | -14 | 1.41 |
| CC(C)n1cnc(C(=O)OC[C@H]2CCOC2)c1 | -9 | 1.09 |
| CCN1CCC[C@H](CNCc2ccccc2OCc2cccnc2)C1 | 12 | -1.54 |
| c1ccc2c(c1)OC[C@H](CNCc1nc3c(s1)CCC3)O2 | -17 | 1.47 |
| CC[C@@]1(C)COCCN1C(=O)c1ccoc1Br | -14 | 2.28 |
| NC(=O)c1cncc(-c2cccc3cnccc23)n1 | -5 | 0.94 |
| CCCCOC(=O)Nc1ccc(C)c(Cl)c1 | -12 | 1.55 |
| Cc1cc(C2CCC2)nc(N2C[C@@H](CN(C)C)[C@@H](CO)C2)n1 | -1 | 0.17 |
| CCCCC(=O)N[C@]1(C(F)(F)F)C(=O)N(Cc2ccccc2)C(C)=C1C(=O)c1ccccc1 | -12 | 1.82 |
| Cc1cc(NC(=O)CN2CCc3nc(NC(=O)c4cnccn4)sc3C2)no1 | -9 | 1.48 |
| Cc1csc(NC(=O)c2csc(NC3CC3)n2)n1 | -5 | 0.97 |
| Cn1c(OC2COC2)nc2ccccc21 | 0 | 0.05 |
| Cc1ccccc1NC(=O)C1CN(S(=O)(=O)C2CC2)C1 | -7 | 1.08 |
| CCOc1ccc(S(=O)(=O)N2CCN(Cc3nc(-c4ccccc4OC)oc3C)CC2)cc1 | -12 | 1.62 |
| Cc1cnc(C(=O)NCc2ccccc2CN2CCOCC2)cn1 | -3 | 0.47 |
| CN(Cc1cccs1)C(=O)C1CCC(NC(=O)OC(C)(C)C)C1 (stereo not given) | 1 | -0.21 |
| Cc1cc(C)n(CCO[C@@H]2CCCCO2)n1 | -16 | 2.2 |
| COCCN1CCN(c2nc(-c3cc(F)ccc3F)c3c(N)n(Cc4ccccc4)nc3n2)CC1 | -1 | 0.13 |
| CCCCS(=O)(=O)N[C@@H](C)c1ccc(C#N)cc1 | -4 | 0.75 |
| CCc1ccc(S(=O)(=O)N2CCC3(CC2)c2cccn2-c2ccc(C)cc2N3CC)cc1 | -2 | 0.28 |

| SMILES | % Inhibition [%] | Z score |
| --- | --- | --- |
| COc1cc(OC)cc(-c2nc(-c3ccc(Oc4ccc(NC(C)=O)cc4)cc3)no2)c1 | 13 | -1.43 |
| COC(=O)C[C@@H](c1cccnc1)c1cc2c(cc1O)OCO2 | -1 | 0.13 |
| Cn1ccnc1[C@H](CCc1ccccc1)OC(=O)C1CCCCC1 | 4 | -0.41 |
| CC1CC(c2ccccc2)C(C)N1C(=O)c1ccnn1CC(F)F (stereo not given) | 5 | -0.62 |
| Cc1nc(CC(=O)NCCc2nc3c(s2)CCC3)cs1 | 3 | -0.41 |
| O=C(Cc1ccsc1)NCc1nnc2cc(C(F)(F)F)ccn12 | 23 | -2.89 |
| CN1CCC[C@@H]1CCNc1nccc(-c2cnn(-c3ccccc3)c2)n1 | -3 | 0.44 |
| CC(C)=CCO[C@H]1CCOC[C@H]1NC(=O)c1ccc(-n2cnnc2)nc1 | 15 | -2.07 |
| COc1ncccc1C(=O)N[C@@H](C)Cn1cncn1 | -6 | 1.1 |
| Nc1nccnc1C(=O)Nc1ccc(-c2cn3c(n2)CCCC3)cc1 | -4 | 0.57 |
| c1cc(-c2ccn(Cc3nccs3)n2)cc(-c2nccc3occc23)c1 | -6 | 1.04 |
| CCN(C(=O)c1ccc(-c2cc(OC)nc(N)n2)cc1)[C@H]1COC[C@@H]1O | -17 | 1.54 |
| Cc1nc(C(C)C)oc1C(=O)N1CC[C@H](c2nnc[nH]2)C1 | -1 | 0.09 |
| CCc1nnc2c(NC(=O)Cc3ccccc3Cl)cccn12 | -11 | 1.76 |
| C=CCOc1ccc2c(c1)c(S(=O)(=O)c1ccc(C)cc1)cn2COC | -14 | 2.23 |
| CC(C)Oc1ccc2nnc(CCC(=O)N3CCOCC3)n2n1 | -3 | 0.48 |
| Cc1nn(CCO)cc1CN(C)Cc1cscn1 | 9 | -1.14 |
| Cc1nn(C)c(C)c1NC(=O)CNC(=O)[C@H]1CCCN(C(=O)c2cccc3ccccc23)C1 | -2 | 0.32 |
| Cc1cccnc1[C@H](C)NC(=O)c1ccc(NC(=O)c2ccoc2C)cc1 | 23 | -2.94 |
| Cc1ccncc1S(=O)(=O)N(C)C1CCN(C(C)C)CC1 | -2 | 0.2 |
| CC[C@H]1CC[C@H](C(=O)N2CCOC[C@@H]2CC(=O)O)CC1 | 1 | -0.13 |
| C[C@H](NC(=O)C1CC=CCC1C(=O)N1CCOCC1)c1ccccc1 (stereo not given in full) | 3 | -0.51 |

| SMILES | % Inhibition [%] | Z score |
| --- | --- | --- |
| Cn1c(C(=O)N2CCC[C@H](C(=O)O)C2)ccc1-c1ccc(F)cc1 | 4 | -0.52 |
| Cc1ccc(NC[C@H]2CCN(CC(=O)N(C)c3nccs3)C2)nc1 | 0 | 0.04 |
| Cc1cc(C(=O)Nc2nnc(C3(c4ccccc4)CC3)s2)no1 | -9 | 1.45 |
| CN1C[C@H](NC(=O)c2cnccn2)CCC[C@@H](C(=O)N(C)Cc2cccnc2)CC1=O | 5 | -0.62 |
| O=C(c1cccnn1)N1CCC([C@@H](O)CCc2ccccc2)CC1 | -4 | 0.79 |
| COc1ccccc1-n1c(=O)n(C2CCCC2)c(=O)c2c1ncn2Cc1ccccc1Cl | 37 | -4.79 |
| CCNc1ncc(CN2C[C@@H]3CC[C@H]2CN(Cc2c(C)noc2C)C3)cn1 | -8 | 1.16 |
| O=C(Nc1ccc(F)cn1)N[C@H]1CCCc2occc21 | -5 | 0.65 |
| Cc1ccc(-c2nnc(NC(=O)c3ccc(=O)[nH]n3)[nH]2)o1 | -14 | 1.7 |
| O=C(c1ccccc1F)N1CCc2nc(N3CCCCC3)nc(N3CCOCC3)c2C1 | -2 | 0.25 |
| CC(NCc1cc[nH]n1)C(C)n1cccn1 (stereo not given) | -11 | 1.11 |
| O=C(c1ccc2nc[nH]c2n1)N1CCN[C@H](c2cccc(Cl)c2)C1 | -7 | 0.85 |
| Cc1noc(-c2cc(S(=O)(=O)Nc3cccc(Cl)c3C)c(C)s2)c1C | -12 | 1.16 |
| CNC(=O)CCOc1ccc(C)cc1C | 2 | -0.3 |
| c1cnn(-c2cncc(NCCC3CC4CCC3C4)n2)c1 (stereo not given) | -13 | 1.34 |
| O=C(Cc1ccccc1Cl)Nc1ccc(NC(=O)c2ccco2)cc1 | 5 | -0.6 |
| COCCN(C)C(=O)c1cnc(N(C)C)nc1[C@H]1CCN(S(C)(=O)=O)C1 | -7 | 0.77 |
| CC(C)n1nccc1C(=O)N1C[C@H]2CC[C@@H](C1)[C@H]2O | 1 | -0.11 |
| Cc1ncsc1CCC(=O)N1C[C@@H]2CC[C@H]1CN(Cc1ccccn1)C2 | -3 | 0.41 |
| Nc1nc(Cc2ccc(Br)cc2)cs1 | -8 | 0.76 |
| Cc1ccc(-n2cccn2)cc1S(=O)(=O)NCCN1CCCC[C@@H]1CO | -2 | 0.4 |
| C[C@@]1(NC(=O)Cn2nc(C(F)(F)F)c3c2CCOC3)CC=CCC1 | 5 | -1 |

| SMILES | % Inhibition [%] | Z score |
| --- | --- | --- |
| CC(NC(=O)C1CCOC1)C(O)c1c(F)cccc1Cl (stereo not given) | -1 | 0.07 |
| c1ccc(-n2ncc3c(NC4CCN(C5CC5)CC4)ncnc32)cc1 | 5 | -0.76 |
| Cc1n[nH]c(CN2C[C@H](c3ccccc3)C(C)(C)C2)n1 | -10 | 1.95 |
| O=C(Nc1ccc2nccnc2c1)c1cccc(CN2CCC[C@H](O)C2)c1 | -18 | 1.64 |
| CCS(=O)(=O)C1CN(C(=O)C(C)(C)c2cccc(Cl)c2)C1 | -1 | 0.08 |
| CC1CCC(NS(=O)(=O)c2ccc3c(c2)NC(=O)CO3)CC1 (stereo not given) | -1 | 0.19 |
| O=C(NCC1CC1)[C@@]1(CCO)CCN(c2ncccn2)C1 | -6 | 1.2 |
| CS(=O)(=O)[C@@H](Cc1ccccc1)c1nc(-c2ccccn2)no1 | -6 | 0.64 |
| Cc1cc(C(=O)NCc2nc3ccccc3s2)no1 | 2 | -0.32 |
| CC(C)OCC(O)CN(CC(=O)N1CCc2sccc2C1COc1ccc(F)cc1)CC1CC1 (stereo not given) | -30 | 2.89 |
| O=C(CCc1cccnc1)N[C@H]1CN(C(=O)c2ccc(F)cc2)C[C@@H]1C1CC1 | -1 | 0.14 |
| O=C(NCC1CC12CCCc1ccccc12)C1CCCc2[nH]ncc21 (stereo not given) | -6 | 0.8 |
| COCC1(CNc2ncnc3[nH]ccc23)CCCC1 | -3 | 0.38 |
| O=C(c1ccc(C(F)(F)F)cc1)N1CC2CN(S(=O)(=O)c3ccccc3)CC(C1)O2 | -24 | 2.1 |
| COc1c(F)c(F)c(CN2CCN(C)[C@@]3(CCNC(=O)CC3)C2)c(F)c1F | -9 | 1.1 |
| Cc1cc(C(=O)N2CC[C@H](Oc3cncc(N(C)C)n3)C2)no1 | -7 | 0.82 |
| COc1ccc(OC[C@H]2CC3(CCCCC3)CN2C(=O)c2cnccn2)cc1 | -20 | 3.4 |
| CCOC(=O)N1CCC(NCc2c(C(=O)O)c(C)n(Cc3cccc(Cl)c3)c2C)CC1 | -7 | 1.3 |
| CCN(CCC(=O)OC)S(=O)(=O)c1cccc2ccncc12 | -1 | 0.23 |
